Values marked as one replicate rest on one cluster of the flow cell; about a third of the high ones do not repeat.
System: ATP
Test: switch fluorescence ratio, 500 uM ATP over buffer (Cy3 cluster intensity, sum of 5 cycles each) (fold (ratio)); higher = stronger signal-on switching upon ATP binding; sequences stand for … in TCGTCGGCAGCGTCAGATGTGTATAAGAGACAGTTTTTTTTTTTTTTTTTTTTTTTTT…TC
Conditions: aptamer strand: ATP DNA aptamer (quencher-CACCTGGGGGAGTATTGCGGAGGAAGG + anchor), 100 nM annealed; ATP concentration: 500 uM; one replicate
In short: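 Cy3-labelled switching-strand clusters on a modified Illumina MiSeq flow-cell were annealed to 100 nM quencher-labelled ATP aptamer, imaged in selection buffer, then imaged after 15 min with 500 uM ATP at 22 °C. Five buffer/ATP cycles ran, with NaOH stripping and re-annealing between them. The fluorescence ratio is summed target-cycle over summed buffer-cycle Cy3 intensity per cluster, averaged per switch-domain sequence. Clusters outside 100-1000 RFU were excluded.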
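Note: ATP exposure 15 min at 22 °C before imaging.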

Sequence | switch fluorescence ratio
ACAAGTGGGG | 1.04
AGCATCTAGG | 0.949
AGTGTCGATA | 1
TTCTGGTAAG | 0.995
ACCGTTGTTT | 0.957
TACTAAATGC | 1.12
GTGCTAGAAC | 0.988
TCTAATACGC | 1.03
CCACATATGT | 1.01
TTTATGCGTA | 0.959
TTGGTCTATT | 0.986
ACGCGACCTG | 1.15
TAGATCATTA | 0.999
ACGCAGGCGG | 1
TTGTGTACCT | 1.06
GTTGAAAGGC | 1.04
GGGACGAGCA | 1.14
TAAGACAGCT | 0.986
GACATGGCCT | 1.05
CTGACATAAT | 1.19
CAGGTGCAAG | 1.18
AGTATATGCA | 0.987
CACAAGTCAC | 1.18

Sequence | switch fluorescence ratio
TGCTTCATC | 1.07
CCAACGAAGG | 1.01
TTCTTGAATG | 1.03
CCACCACTGC | 1.97
AGATCTTAGG | 0.976
TCGAGTGCAG | 0.972
GCCGGAAGGG | 0.961
TACTTGACG | 1.02
ATCCTTACGG | 1.09
CCTGTATCCG | 1.1
TGGTTTATG | 0.992
GCATCAACTG | 0.931
CATAGACCGC | 1.07
CTCTGGTTTG | 0.949
AGTGTAGGAC | 0.986
CCGACGTGAG | 1.54
GATAGAGTAT | 1
AGGACTGCAA | 2.07
GACCATAGCG | 1.11
CCCCTCATTT | 1.03
TTTACCGCAG | 1.31
TCGACGTC | 1.05
TATACAGTG | 0.995

Sequence | switch fluorescence ratio
CGCGTATCC | 1.07
TCAGCAGTCC | 1.65
ACTCTACATC | 1.23
TCGCCGGATC | 1.05
AGTATACGCT | 1
CTTTATTTT | 0.973
CTCTTTTCCC | 1.08
AAGGGTTCCA | 1.02
TAAGCCAGC | 1.01
TACCAAAATT | 0.984
TCAAGGTAAT | 1.04
TTATGTCGGT | 0.981
CTCTGCATCT | 3.67
GGAGTAGCCC | 0.997
GTGTGTTATT | 0.993
TCTAACTGTT | 0.839
ACCAAGATCT | 1.03
GATGCTAATC | 1.03
CAACCGGCCT | 1.35
CCTAAATCCC | 1.03
GTTCGTCAGG | 1.04
CCGTACCATA | 1.59
TCAAGGTGTG | 1.08

Sequence | switch fluorescence ratio
AACTGAGATA | 1
ATGTATTGA | 1.06
TAATATGAGT | 1.01
CTAAGTTCTC | 1.01
CGGCCCAACG | 1.01
TAATAGAACT | 1.01
ATTTCGCTG | 1.03
CCGTGATTAG | 1.61
AGTCATTTGA | 0.979
GAAGTAGATG | 1.05
TTGGGTGAGA | 1.03
TGATAGGGAA | 0.996
GTCAACTTTC | 1.08
TGGACGCCGG | 0.95
CTTTGAGTTT | 0.978
TTCGAGTAGC | 1.01
CGGTAAGGCT | 1.04
CGGTTGCTTT | 0.951
ATATCTTTGT | 0.954
GGAGAAGAGG | 0.967
TAATTAGTTG | 1.1
ATGAACTAG | 1.02
GACAGGTGGC | 1.48

Sequence | switch fluorescence ratio
CATTTGGCC | 1.01
ACGATACCTT | 1.51
ATCTTCAGGA | 0.976
GACGTTTAA | 1.05
TTCTTTCTG | 0.962
CTCTGCAAGT | 7.48
AAGTATATT | 0.993
CGGTCTTGAT | 1.01
GTGTTATCAG | 0.977
CGGCGGGTAC | 2.05
CGGGGCTAAT | 0.984
TGGAGGCACA | 1.05
GTCCACTACA | 1.03
AGACAGTAGT | 1.04
TACGGCTACG | 1
TCTCGTCTAT | 1.05
CCCTCGTCGT | 1.03
CTCGCAGGGA | 1.12
TCGTACTCGG | 1.01
GATGTTACTC | 1.12
TAAAGACCT | 1.41
TAACCACAGG | 1.17
CGTTAATTTC | 0.995

Sequence | switch fluorescence ratio
TTGCCACCAA | 1
TATGCAAATG | 1
CGGTACTTTC | 0.966
GACGTCTGAT | 0.977
ACTTGTTTCA | 1.01
GAGGATCGAT | 0.986
GATCATGGAA | 0.975
GCAAACGTCA | 1
TGTAATATCG | 0.968
AGAGAAAATA | 0.952
CTTGCCGGGC | 0.987
ATTTTGCGA | 0.966
TACAGAGGA | 1.03
TGCACCTAAA | 1.01
AGCGATAGTG | 1.07
CCCATATATA | 1.01
ACGTCTCAGA | 1.03
AGCTGAGAA | 1.03
ATAGAGTCGA | 1
ACTAGCCTCT | 1.09
TGGATGTAGG | 1.02
GGTGAAGTG | 0.981
AACCCTTAGT | 0.995

Sequence | switch fluorescence ratio
TGCTGGAAGC | 1
ATTAGCTTAC | 2.22
GCTGGCTATT | 0.955
GATAATTTGC | 1.03
TTATAAGCGC | 0.942
TCCGGGGTCT | 1.08
AGGTGGGCC | 1.02
AAACGCTAGT | 1.01
GCTCCCCATG | 1.08
TGGGGTAAC | 0.983
CGACGTAGCG | 1
TTCCGGAAAT | 1.05
AATAACGG | 1.01
TATGTAACCA | 0.982
AAGCCTGCTA | 1.07
TCCCTTCTTA | 0.997
TGGTGCCCGA | 0.998
GACGACCGCT | 2.26
TATTTCGTTT | 0.968
AGTTGATCTG | 0.942
